From the supplement of paper PMC11417369
The other results are listed elsewhere or left out.

Tested on: PfHDP1 homeodomain (GST-tagged)
Experiment: gcPBM binding intensity (ln(normalized median fluorescence intensity)); higher = stronger DNA binding
Outline: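 Binding of GST-tagged P. falciparum DNA-binding domains, expressed in E. coli and used at about 25 μg on average, was carried out for 1 h in 1× PBS containing 1% milk, 0.2 mg/ml BSA, 0.5% salmon testes DNA and 0.03% Triton X-100. The target was an Agilent 4 × 180k array of primer-extended double-stranded 36-bp intergenic genomic probes plus negative controls, read with Alexa488 anti-GST antibody at 488 nm. Binding intensity is the highest Masliner-normalised natural-log median intensity across replicate spots of either probe orientation.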

In order of falling “gcPBM binding intensity (ln)” value:
1. TCGTATATGGATTTTGCACACAATTATAATTTAAAT [CACACA_site868]  10.8
2. TTTTTAATTTATTGTGTGCACACAACTATGAGTTTT  10.3
3. TGTTTTATTTAGAAGGTGCACATTAATATTAAATAA  9.73
4. TAAAAACAAAAATGCACACATAATAAGCATATGTAT [CACACA_site3469]  9.59
5. ACTATTTTCTTCAAAACATGCACCACATAAACATAA [TGCATGCA_site200]  9.43
6. ATATATATATATATATGTACACATTAATGTTTTTTT [XGTACX_site167]  9.36
7. GTTTGTAAATATTTTACACACATATATATATATATA [CACACA_site1075]  9.32
8. AGAAAAAAAAAAAATGCACACATTTTCATTGTCAGT [CACACA_site1935]  9.32
9. TAACTTGAATGGATATGTACATATATATATATATAT [XGTACX_site5990]  9.31
10. ATATATATATATATGTGTACATATTTTTTTTTTTTT [XGTACX_site3425]  9.31
11. TTTTTTTTTTGATGCACACACCTGAACGAGTTAATA [CACACA_site4329]  9.18
12. ATATGGCTAAAAGTTGCACACACACTAATAAAAAAA [CACACA_site9082]  9.15
13. AATATATATATTAGAGTGCACATAATTATTTGCTAA  8.88
14. TTTATACTTGTAAATGCACACATAAGATGCGACTAA [CACACA_site8662]  8.44
15. TCGGGAGGGGGGAAGCGTACATATATAAAATTATTA [XGTACX_site4683]  8.42
16. ATTATTTATTTATGTGTGCGCATGTGTGTAAATATT  8.19
17. TTTTCTAAAGTAAGTTAAGATATGCAAAAAAAAGAA [GTGCAC_negctrl_site242]  7.56
18. AACAGGTCATAATTTACACACTATATATCTTATTAT [CACACA_site6461]  7.24
19. TAATTAATCGATTTACGCACATGAACAAAAGCACAT [CACACA_negctrl_site1287]  7.16
20. TATTGTTGTCTTTACACATGCAACAAAAGAAGAAAA [TGCATGCA_site911]  7.13
21. TATTTTTAATAAAAACGTACGGAATACAAAAAAAAT [XGTACX_site3477]  7.12
22. TTAAACATATATTAAGCACACACAAACAAAAAAACA [CACACA_site8816]  7.1
23. TATATATTTTAAAATAGTACATATTATATAACCCAT [XGTACX_site2194]  7.04
24. ATATGCATTTTTATACGTACATATTTCTTTTCGTTA [XGTACX_site1497]  7.04
25. TTCTTCTGTTTTATTACACACCATTTTGTGGATACA [CACACA_site5181]  7.04
26. TATTATAAAATATACACATGCAAAAACAAAATTTAC [TGCATGCA_site1051]  7.03
27. TTATTTTTTATTATGTGTACATAACATCGCGATACA [XGTACX_site4359]  7.01
28. ACAAAAGGGGAATACACACACATATATAAATAAATA [CACACA_site7111]  7.01
29. TGATATATATATATATATATAACACACGCAAAAAAA [TGCATGCA_negctrl_site240]  6.95
30. TTATATGTATATATATGTATATATATATATATATAG [TGCATGCA_negctrl_site461]  6.94
31. GTAAATATTAATAAAAGTACATATGTAGCATATGGA [XGTACX_site5219]  6.93
32. GATTTAGTTATTTAAACATGCAATTTATATAGAATT [TGCATGCA_site47]  6.88
33. TATAAAAGGTAAGAGTGTACAAGTAAAAAATTTTTA [XGTACX_site771]  6.87
34. TATATAAATAGACACACACACATATAAATATAAATA [CACACA_site6503]  6.87
35. AATAAACATATATACACACACAAAAAAAAAAACATA [CACACA_site424]  6.86
36. TATTTATACATACATACACACATATAGATTTATATT [CACACA_site7851]  6.85
37. ATATGATATATATTCGGTACACATATATATAAAGAG [XGTACX_site430]  6.82
38. TTTCTTGGGAGACATGCATGTACCAGAACAAAATAA [TGCATGCA_site272]  6.8
39. ACAGTATCTGGTAGCTGTACGAGTCGTAGAGTGCAG [XGTACX_site2015]  6.8
40. CCTTTTTTATTTACAACACACGTAAAGGTTCAAATA [CACACA_site1741]  6.8
41. AAAAAACACAGACATACACACAAAAAGGTTATAAAT [CACACA_site4222]  6.79
42. TATAGATACAGATACACACACACACCGACATATATA [CACACA_site5832]  6.77
43. ATTCATCTATTTTGTAGTACTAAATATATATCTACT [XGTACX_site8790]  6.76
44. AAAAATTTCATATTCACACACAAAAAAAAAAAATAT [CACACA_site1592]  6.75
45. AATAAAAATTGGTAGGCACACATGGAACTATTAAAA [CACACA_site1257]  6.75
46. TTATCCTTGTAACAATGTACACATTATTTAATACTT [XGTACX_site1830]  6.74
47. CATACAGATGGACACACACACACACCCACAGACAAA [CACACA_site4431]  6.72
48. CATATTTTTATGAGATGTACAATAAGAAATATGTAA [XGTACX_site2389]  6.72
49. TATATATAGCATATTTCACACACACCGAATGAATAT [CACACA_site9182]  6.7
50. TACAATCTTTCATTATGTACTTAACATTTTTTCTGT [XGTACX_site8752]  6.68
51. GAATGTATATTCATGTATTTATTATTATTATTATTA [XGTACX_negctrl_site156]  6.68
52. CAACATTCGTATATCACACATTTGCATGTTGTCAAT [CACACA_site4470]  6.66
53. ATTAATTATTGTAATTGTACATTTTATATATATCCA [XGTACX_site2105]  6.6
54. TACAAAATAGTTTACACACACATATATATACATATA [CACACA_site2615]  6.59
55. TATCCCTTAGAATACACACCCATATGAGCGTGAACT [CACACA_site2951]  6.58
56. TTTTTTTAATTTGGTTGTACTTAAAAAAAAAACAGA [XGTACX_site5788]  6.58
57. TACCTAGGATTAAAGTGTCCACATAATTTAAATAAT [XGTACX_site6736]  6.55
58. CACCCATAGAAACACACACACGCATAAAAAAAAAAA [CACACA_site1513]  6.54
59. TTTTTTATTATATAATTGTATATAAAATTATAATTT [GTGCAC_negctrl_site733]  6.54
60. TATTCTAATATTTATACACACATAACTTTGATAAAT [CACACA_site6418]  6.53
61. TAGATGTATGTACATACACACATATATAAATAAATA [CACACA_site1788]  6.51
62. CGATTTTTTTTTTATTGTACTTGCTCGCATGCAATA [XGTACX_site4727]  6.5
63. ATATGCCTAATAAAATGTACGTTTGTTTTATTTATT [XGTACX_site3833]  6.49
64. TATTTTTTTTTTTAATGTACAAACAAATTATGTTGG [XGTACX_site2873]  6.48
65. TTTATTTTTATGGTCACACATATTTTTAAAACTATA [CACACA_site4372]  6.48
66. ATGAACTATATTAAATCACACATTATCATTTTATAT [CACACA_site4989]  6.47
67. TTTTTTTTTTTATATACTGGAAATATATTTAATTTA [GTGCAC_negctrl_site250]  6.47
68. GGTAAGTACGACTTGACACACATACCCATATATATA [CACACA_site4837]  6.47
69. TGTATACCTTAATATACACACATACAGATATATATA [CACACA_site4860]  6.46
70. ATAATCACAAATAATTGTACATTTTGTTATATATAT [XGTACX_site7704]  6.45
71. ATTTAAATAATATTCACACACAAAATTATATTTTAA [CACACA_site219]  6.43
72. TAAAAATTAATATAAACACACAAAAATTAATAAATA [CACACA_site381]  6.42
73. ATATCCTTAAAAGATACACACATATGAATATTTTGT [CACACA_site3847]  6.39
74. ATTTTTTTTATGAGGTGTACTCATATAATAACTACA [XGTACX_site5074]  6.39
75. TATACCAAATATATGGGTACACAAATATGTTTATTC [XGTACX_site8932]  6.38
76. AAAACTTGTCAGAATGGACACACGAATTAAAGGCCT [CACACA_site1215]  6.37
77. GCATAAACGGATAATTAATTATATTATATTATATCA [CACACA_negctrl_site1519]  6.37
78. AACATATTTTTTTGTTGTACTTACAATTATAAGCAT [XGTACX_site3056]  6.35
79. ATTTATTTATATATATTATTTGTTTTAATTTACTTA [XGTACX_negctrl_site246]  6.33
80. TATGTCAAATATATATGTACACAAATATACTATTAA [XGTACX_site2643]  6.26
81. GCGAAATATTATTATAGTATACAAATACTTCTATGA [CACACA_negctrl_site197]  6.21
82. ATTATTTTACTAAAAGATATTCCTTTTTTTTGTACT [CACACA_negctrl_site998]  6.2
83. GGTGTTAAAAAATACACACACAAAAAAAAAAAAAAA [CACACA_site138]  6.13
84. TATAAAGCAACTGAAACACACAAATTTTTTTTTTTT [CACACA_site3218]  6.13
85. TCGTGAATGATTTAAGTACACACCGGTATTTATTCA [CACACA_site1564]  6.12
86. TATGTATTTATATTAACACACAAAAAAAAAAAAAAA [CACACA_site5070]  6.12
87. TTCATAAGAAGGAACTGTACATATTTTTCATTTTTT [XGTACX_site6770]  6.1
88. TATAACAAGTTATAAAGTACAAATGTTGAATTTTAT [XGTACX_site4673]  6.07
89. AAGTTTTCTTAAAATTGTACTTTTCAAAAATAATCT [XGTACX_site277]  5.83
